Experimental data reported in publication PMC5993806.
Like-named read-outs stand apart in the source and are kept apart here. These are yes or no findings as the source states them, for the method shown. Binding seen in cells or lysates may run through a third protein. Some results given as binding are weak or reduced against the parent protein; the word gives no strength. For some assays here: Where a sequence is shown, tags or fusion partners need not be part of it. Blank lines part the entries; values can stand above or below the molecule they belong to.

Chains of the proteins cited; added tags and fusions are not shown. Lines headed by an entry give the natural chain unless they say otherwise; changes in a name come on top.
UniProt Q9Y3Z3: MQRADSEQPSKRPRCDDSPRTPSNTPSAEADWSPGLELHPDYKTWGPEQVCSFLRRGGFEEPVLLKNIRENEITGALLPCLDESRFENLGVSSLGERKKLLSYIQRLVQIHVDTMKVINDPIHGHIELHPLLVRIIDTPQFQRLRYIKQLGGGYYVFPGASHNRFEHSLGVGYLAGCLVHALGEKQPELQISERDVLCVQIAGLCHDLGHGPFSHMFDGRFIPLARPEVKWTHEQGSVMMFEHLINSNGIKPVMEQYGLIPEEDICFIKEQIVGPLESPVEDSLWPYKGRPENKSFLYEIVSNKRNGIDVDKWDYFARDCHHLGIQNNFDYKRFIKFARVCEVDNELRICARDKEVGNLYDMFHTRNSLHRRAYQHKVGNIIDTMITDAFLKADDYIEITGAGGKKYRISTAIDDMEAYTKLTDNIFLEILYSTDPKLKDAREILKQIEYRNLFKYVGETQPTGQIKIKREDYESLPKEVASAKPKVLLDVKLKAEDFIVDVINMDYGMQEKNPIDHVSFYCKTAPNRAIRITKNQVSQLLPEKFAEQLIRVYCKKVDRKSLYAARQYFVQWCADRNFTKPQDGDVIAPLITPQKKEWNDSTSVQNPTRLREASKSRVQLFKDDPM
UniProt Q15172: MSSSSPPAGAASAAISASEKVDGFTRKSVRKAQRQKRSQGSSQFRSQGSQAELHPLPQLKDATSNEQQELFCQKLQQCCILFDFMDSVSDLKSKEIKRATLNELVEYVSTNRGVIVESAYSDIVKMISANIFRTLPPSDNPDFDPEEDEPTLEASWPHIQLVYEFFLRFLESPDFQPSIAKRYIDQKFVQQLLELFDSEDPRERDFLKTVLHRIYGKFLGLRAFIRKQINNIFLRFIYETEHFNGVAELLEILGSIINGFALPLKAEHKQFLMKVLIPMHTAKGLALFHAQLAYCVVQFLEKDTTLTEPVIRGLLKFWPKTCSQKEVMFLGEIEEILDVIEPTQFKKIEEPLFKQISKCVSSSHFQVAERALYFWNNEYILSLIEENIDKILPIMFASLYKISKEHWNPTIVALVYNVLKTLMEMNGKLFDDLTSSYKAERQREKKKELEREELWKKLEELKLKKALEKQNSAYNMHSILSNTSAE
UniProt Q15173: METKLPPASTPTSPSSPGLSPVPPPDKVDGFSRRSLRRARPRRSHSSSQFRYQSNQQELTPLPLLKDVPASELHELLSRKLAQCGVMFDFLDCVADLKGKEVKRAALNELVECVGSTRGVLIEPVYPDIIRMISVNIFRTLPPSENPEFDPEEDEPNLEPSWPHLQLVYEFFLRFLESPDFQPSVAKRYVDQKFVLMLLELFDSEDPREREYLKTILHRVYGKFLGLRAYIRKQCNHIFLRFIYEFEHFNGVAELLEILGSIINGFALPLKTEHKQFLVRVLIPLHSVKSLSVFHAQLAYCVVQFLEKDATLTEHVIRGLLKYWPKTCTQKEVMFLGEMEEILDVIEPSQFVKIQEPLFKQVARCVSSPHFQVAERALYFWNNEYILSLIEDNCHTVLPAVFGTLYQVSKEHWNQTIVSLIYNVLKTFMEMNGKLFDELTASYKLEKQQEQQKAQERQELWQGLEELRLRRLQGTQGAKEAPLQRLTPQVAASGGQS
UniProt P30153: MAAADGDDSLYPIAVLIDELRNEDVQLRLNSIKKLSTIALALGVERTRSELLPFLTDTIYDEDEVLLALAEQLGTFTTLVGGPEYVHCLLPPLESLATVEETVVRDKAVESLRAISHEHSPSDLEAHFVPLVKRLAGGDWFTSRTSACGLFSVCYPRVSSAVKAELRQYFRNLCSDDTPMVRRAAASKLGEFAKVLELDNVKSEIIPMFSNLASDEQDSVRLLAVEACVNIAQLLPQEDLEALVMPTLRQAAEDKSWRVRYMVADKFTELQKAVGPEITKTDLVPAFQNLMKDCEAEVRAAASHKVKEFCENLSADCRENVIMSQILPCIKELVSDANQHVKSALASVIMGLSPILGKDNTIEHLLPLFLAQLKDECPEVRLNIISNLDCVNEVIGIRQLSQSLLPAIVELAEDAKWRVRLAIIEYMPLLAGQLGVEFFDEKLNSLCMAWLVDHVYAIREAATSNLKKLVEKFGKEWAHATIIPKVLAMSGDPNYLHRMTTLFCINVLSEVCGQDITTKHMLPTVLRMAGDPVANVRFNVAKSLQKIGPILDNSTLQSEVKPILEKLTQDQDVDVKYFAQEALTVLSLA

How the values were obtained:
[1] = target: N-terminally FLAG-tagged SAMHD1 (human, wild type) (human) (UniProt Q9Y3Z3); assay: co-IP
[2] = target: SAMHD1 T592A (human) (UniProt Q9Y3Z3); assay: co-IP
[3] = target: SAMHD1 R451E (human) (UniProt Q9Y3Z3); assay: co-IP
[4] = target: SAMHD1 T592E (human) (UniProt Q9Y3Z3); assay: co-IP
[5] = target: N-terminally GST-tagged PP2A B56α subunit (UniProt Q15172); assay: co-IP; HEK293T cells co-transfected with nFLAG-SAMHD1 and GST-tagged PP2A B-type subunits; NET lysis buffer; GST-Trap_M magnetic beads, 1.5 h at 4 °C; immunoblot
[6] = target: N-terminally GST-tagged PP2A B56β subunit (UniProt Q15173); assay: as above
[7] = target: T1, N-terminally GST-tagged PP2A B55α subunit (UniProt P63151); assay: as above
T1 sequence: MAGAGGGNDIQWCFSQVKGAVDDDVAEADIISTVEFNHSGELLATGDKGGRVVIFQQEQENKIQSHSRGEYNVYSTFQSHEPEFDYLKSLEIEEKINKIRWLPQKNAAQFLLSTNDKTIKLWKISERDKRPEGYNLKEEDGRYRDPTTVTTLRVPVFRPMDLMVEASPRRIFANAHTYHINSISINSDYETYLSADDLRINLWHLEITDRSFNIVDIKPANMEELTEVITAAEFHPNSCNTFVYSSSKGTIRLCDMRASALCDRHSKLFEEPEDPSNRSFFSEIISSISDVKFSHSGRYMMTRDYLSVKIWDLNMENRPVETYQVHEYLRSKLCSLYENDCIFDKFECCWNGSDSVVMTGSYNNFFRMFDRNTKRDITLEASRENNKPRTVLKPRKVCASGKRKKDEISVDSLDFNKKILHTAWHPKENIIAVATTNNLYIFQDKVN

[8] = target: T2, N-terminally GST-tagged PP2A PR72 subunit (UniProt Q06190); assay: as above
T2 sequence: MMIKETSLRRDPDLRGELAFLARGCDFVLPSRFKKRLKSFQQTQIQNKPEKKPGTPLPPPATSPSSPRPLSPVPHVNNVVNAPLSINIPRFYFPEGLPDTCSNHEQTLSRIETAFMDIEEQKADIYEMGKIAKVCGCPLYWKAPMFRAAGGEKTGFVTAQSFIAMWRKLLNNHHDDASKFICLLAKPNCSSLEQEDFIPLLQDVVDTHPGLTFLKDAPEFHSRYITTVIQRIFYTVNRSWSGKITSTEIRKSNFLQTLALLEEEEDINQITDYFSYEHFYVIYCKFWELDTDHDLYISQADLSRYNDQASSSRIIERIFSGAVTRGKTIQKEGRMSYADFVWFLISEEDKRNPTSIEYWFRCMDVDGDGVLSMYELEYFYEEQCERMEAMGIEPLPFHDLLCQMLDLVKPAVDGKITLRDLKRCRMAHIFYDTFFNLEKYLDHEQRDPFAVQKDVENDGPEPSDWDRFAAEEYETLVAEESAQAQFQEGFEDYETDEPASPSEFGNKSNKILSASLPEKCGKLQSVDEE

[9] = target: N-terminally FLAG-tagged SAMHD1 (human, wild type) (human) (UniProt Q9Y3Z3); assay: co-IP; remark: listed apart in the source
[10] = target: endogenous SAMHD1 (THP-1) (human (endogenous in THP-1)) (UniProt Q9Y3Z3); assay: co-IP; cycling THP-1 cells (2 x 10^7 cells/sample); anti-IgG1/SAMHD1-coated sepharose beads; immunoblot; both proteins endogenous

Molecule: PP2A Aα subunit (from UniProt P30153 1-589)
- binding [1]: binds
- binding [2]: binds
- binding [3]: binds
- binding [4]: binds

Molecule: N-terminally FLAG-tagged SAMHD1 (human, wild type) (from UniProt Q9Y3Z3 1-626)
- binding [5]: no binding
- binding [6]: no binding
- binding [7]: binds
- binding [8]: no binding

B1: GFP-tagged PP2A B55α subunit (protein, UniProt P63151 1-447)
chain: T1 sequence
- binding [9]: binds

Further lines, results first:

- binding [9]: binds
B2: endogenous PP2A B55α subunit (HEK293T) (protein, UniProt P63151 1-447)
chain: T1 sequence

- binding [10]: binds
B3: endogenous PP2A B55α subunit (THP-1) (protein, UniProt P63151 1-447)
chain: T1 sequence
